# Measurements published in the supplement of paper PMC7826260.
# Some of the results follow. One pool of 16,384 single-stranded DNAs met each Rep nickase domain in vitro (1 h at 37 °C, 3 µM enzyme); the outer parts of the 90-letter strands are left off. A value is the log2 ratio of uncut reads to the pool without enzyme; strong cutting gives strongly negative numbers. There is no active / inactive call. Counts are relative to all reads; uncut strands gain when others are lost, and binding without cutting may add a little.
# What was measured:
# Experiment in all cases: uncleaved DNA left, log2 of reads against the no-enzyme library (log2 ratio); higher = less cleavage (more negative = more Rep cleavage of the k-mer); sequences stand for … in CTCGTCCG…ACCGGAGA
# [1] = test system: T1, Rep nickase domain of Muscovy duck circovirus
# T1 sequence (residues 1-111, tag not shown): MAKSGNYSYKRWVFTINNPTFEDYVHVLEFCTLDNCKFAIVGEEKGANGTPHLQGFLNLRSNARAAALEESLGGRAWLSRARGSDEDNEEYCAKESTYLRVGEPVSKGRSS
# Method: (§1)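 A pool of 90-nt single-stranded DNAs with seven random bases just before the constant AC of the nick site (name = the seven bases) was cut by 3 µM recombinant His6-SUMO-tagged Rep nickase domain (300 nM DNA, 50 mM HEPES pH 8.0, 50 mM NaCl, 1 mM MnCl2, 1 h, 37 °C, three replicates). Uncut DNA was amplified and sequenced.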
# [2] = test system: T2, Rep nickase domain of banana bunchy top virus
# T2 sequence (residues 1-94, tag not shown): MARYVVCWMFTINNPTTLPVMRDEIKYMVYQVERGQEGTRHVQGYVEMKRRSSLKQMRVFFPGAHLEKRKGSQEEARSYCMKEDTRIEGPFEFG
# Method: as §1
# [3] = test system: T3, Rep nickase domain of cabbage leaf curl virus
# T3 sequence (residues 1-116, tag not shown): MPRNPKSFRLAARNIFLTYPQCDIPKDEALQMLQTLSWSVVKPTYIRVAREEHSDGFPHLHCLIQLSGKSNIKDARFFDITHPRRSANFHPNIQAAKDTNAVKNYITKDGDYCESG
# Method: as §1
# [4] = test system: T4, Rep nickase domain of chickpea chlorotic dwarf virus
# T4 sequence (residues 1-124, tag not shown): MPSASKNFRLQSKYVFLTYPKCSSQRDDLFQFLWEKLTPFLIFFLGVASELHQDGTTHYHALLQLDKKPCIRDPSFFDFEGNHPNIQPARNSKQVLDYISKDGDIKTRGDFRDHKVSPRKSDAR
# Method: as §1
# [5] = test system: T5, Rep nickase domain of faba bean necrotic yellows virus
# T5 sequence (residues 1-98, tag not shown): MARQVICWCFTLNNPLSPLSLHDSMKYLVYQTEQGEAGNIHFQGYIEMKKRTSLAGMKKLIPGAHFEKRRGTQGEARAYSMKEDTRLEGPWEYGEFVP
# Method: as §1
# [6] = test system: T6, Rep nickase domain of maize striate mosaic virus
# T6 sequence (residues 1-117, tag not shown): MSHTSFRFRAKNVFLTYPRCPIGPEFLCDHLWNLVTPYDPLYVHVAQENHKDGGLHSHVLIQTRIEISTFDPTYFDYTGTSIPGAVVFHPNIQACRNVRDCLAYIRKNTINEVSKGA
# Method: as §1
# [7] = test system: T7, Rep nickase domain of porcine circovirus 2
# T7 sequence (residues 2-116, tag not shown): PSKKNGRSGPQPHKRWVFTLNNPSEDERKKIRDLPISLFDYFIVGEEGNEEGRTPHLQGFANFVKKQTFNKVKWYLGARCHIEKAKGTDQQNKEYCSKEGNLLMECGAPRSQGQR
# Method: as §1
# [8] = test system: T8, Rep nickase domain of tomato golden mosaic virus
# T8 sequence (residues 1-124, tag not shown): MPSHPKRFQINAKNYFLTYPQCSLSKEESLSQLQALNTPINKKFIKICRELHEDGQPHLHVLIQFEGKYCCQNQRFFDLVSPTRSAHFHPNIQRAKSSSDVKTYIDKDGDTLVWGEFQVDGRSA
# Method: as §1
# [9] = test system: T9, Rep nickase domain of tomato yellow leaf curl virus
# T9 sequence (residues 1-136, tag not shown): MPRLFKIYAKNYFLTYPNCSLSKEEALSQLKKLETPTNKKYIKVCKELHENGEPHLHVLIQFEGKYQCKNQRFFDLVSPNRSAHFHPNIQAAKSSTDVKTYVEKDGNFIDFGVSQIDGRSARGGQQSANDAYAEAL
# Method: as §1
# [10] = test system: T10, Rep nickase domain of wheat dwarf virus
# T10 sequence (residues 1-137, tag not shown): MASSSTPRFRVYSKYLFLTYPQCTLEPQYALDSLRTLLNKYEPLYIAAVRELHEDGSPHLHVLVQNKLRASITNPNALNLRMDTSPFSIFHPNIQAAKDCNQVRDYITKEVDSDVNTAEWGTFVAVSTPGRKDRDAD
# Method: as §1
Sequence,uncleaved DNA left (log2) [1],uncleaved DNA left (log2) [2],uncleaved DNA left (log2) [3],uncleaved DNA left (log2) [4],uncleaved DNA left (log2) [5],uncleaved DNA left (log2) [6],uncleaved DNA left (log2) [7],uncleaved DNA left (log2) [8],uncleaved DNA left (log2) [9],uncleaved DNA left (log2) [10]
ACGGAGG,0.136,-0.0814,-0.281,-0.255,0.0608,-0.985,0.25,0.0839,0.0418,-0.12
GGCGTTA,0.0188,0.0279,0.3,0.604,0.0118,0.912,-0.194,0.0245,0.0618,0.0701
CTATCGG,-0.000639,-0.027,0.487,1.41,-0.0548,1.57,0.065,0.0939,-0.0293,-0.00858
AGGTATC,0.00433,0.0795,0.289,0.466,0.0412,0.407,-0.0932,-0.0166,0.0918,0.0877
TCTGAGA,0.117,0.024,0.419,0.513,0.112,-0.17,0.084,0.0373,-0.0527,0.0772
GGGATAT,-0.1,0.0675,0.788,2.04,-0.129,2.2,0.142,0.00598,-0.17,0.0928
CGTCGGC,-0.014,-0.0417,-0.08,0.119,-0.00735,-0.3,0.0805,-0.124,-0.0399,0.00233
CGCTGAG,0.0429,-0.14,-0.302,0.139,0.247,-0.505,0.368,0.184,0.152,0.265
ATAATGC,-0.00937,0.0231,-0.462,-0.694,0.0352,-1.18,0.0902,-0.0527,-0.0275,-0.0983
GTGTTCA,-0.00107,0.0649,0.385,0.967,0.0509,1.87,0.16,0.0548,0.0584,0.119
TTTTTAT,-1.72,-0.0813,0.252,-0.489,0.000183,-0.00491,-1.27,0.0196,0.0899,0.018
AGGTGTG,-0.00344,-0.188,-0.581,-0.493,-0.0303,-0.947,0.109,-0.000581,0.0581,-0.148
CTAGCAC,-0.0702,-0.0446,-0.275,-0.55,-0.136,-0.759,-0.0057,-0.0888,0.0418,-0.099
TAGCAAC,-0.0181,-0.0249,-0.113,-1.06,-0.147,-0.376,-0.407,-0.0854,-0.0721,-0.112
ACTGGTT,0.0439,0.0269,-0.0347,-0.152,-0.0405,0.434,-0.109,0.11,-0.063,-0.0491
AACATCA,-0.0164,0.0785,-0.0413,-1.81,-0.0294,-0.435,-0.0638,0.0288,0.0686,0.0634
ACCTACT,-3.07,-0.347,-0.799,-2.74,-0.0961,-0.742,-3.21,0.0307,0.00805,-0.136
GTCTTAG,-0.163,0.0619,0.141,0.613,-0.0833,1.23,-0.0878,0.0569,-0.0429,0.0354
CTATTAG,0.04,-0.00915,-0.784,-0.159,-0.0381,-1.05,0.148,-0.124,0.0375,-0.116
AATGCAA,-0.0153,0.0599,-0.281,-0.314,0.0767,-0.864,0.0717,-0.000849,0.0979,-0.0197

Sequence,uncleaved DNA left (log2) [1],uncleaved DNA left (log2) [2],uncleaved DNA left (log2) [3],uncleaved DNA left (log2) [4],uncleaved DNA left (log2) [5],uncleaved DNA left (log2) [6],uncleaved DNA left (log2) [7],uncleaved DNA left (log2) [8],uncleaved DNA left (log2) [9],uncleaved DNA left (log2) [10]
ATGGAGA,-0.0405,-0.055,-0.105,0.567,-0.0168,-0.127,0.193,0.0509,-0.122,-0.0637
CCGAGTC,0.104,-0.0783,0.259,0.271,-0.147,-0.12,-0.187,-0.0837,-0.0783,0.0369
GACTAGA,0.092,0.0726,0.141,0.485,0.0819,0.193,-0.177,0.0661,0.0658,0.0709
TTTATTG,0.105,-0.0502,-0.471,-0.658,0.127,-1.03,0.157,0.0575,0.0688,-0.0397
GACACCT,-0.144,-0.101,-0.136,-1.91,-0.184,0.545,-0.536,-0.14,-0.0547,0.0689
GACGAGT,-0.0917,0.0146,0.17,0.58,-0.0507,0.551,-0.178,-0.0743,-0.0412,-0.0384
TGGCGTC,-0.0818,-0.0487,-0.248,-0.45,-0.137,-0.676,0.0799,-0.149,-0.0948,-0.0846
CCCGACG,0.0674,-0.046,-0.817,-0.831,-0.0569,-0.942,0.191,-0.0839,0.0707,-0.0399
AAAAGGG,0.078,0.0356,-0.253,-0.341,0.143,-0.741,0.203,0.11,0.0776,0.0135
TTGTTAG,0.132,-0.0385,-0.696,-0.57,-0.0661,-1.22,0.0417,-0.118,0.00924,-0.0969
CGTGGTT,0.0485,0.0345,0.148,-0.561,-0.0571,0.513,-0.31,0.0809,0.0748,0.0567
GAGGTTT,-0.0467,0.0692,0.379,-0.318,-0.067,1.68,-2.09,0.0411,0.0426,0.0174
CCCTACT,-3.32,-0.173,-0.282,-2.24,0.163,-0.59,-3.11,0.103,0.27,-0.0167
ATCTCGC,-0.0197,-0.0579,-0.583,-0.664,-0.0898,-1.07,-0.0201,-0.24,-0.0961,-0.122
GGATTTC,-0.0179,-0.0275,0.481,1.14,0.00594,1.77,0.109,0.0016,0.0609,0.102
ATTATAC,0.000557,0.113,0.0272,-0.895,0.0727,-0.85,-0.00668,0.0974,0.0232,0.0403
ACGATTC,0.0439,0.194,-0.0552,-0.0156,-0.0253,-0.645,0.223,0.183,0.0894,0.0103
AGGCCCG,0.0948,0.0564,0.58,1.19,0.0915,0.557,0.0697,0.00731,-0.0505,0.128
CTGATAG,0.116,0.117,-0.756,-0.429,0.0304,-1.03,0.222,0.0817,0.122,-0.118
TACAGAT,0.105,-0.0403,-0.0669,-0.26,0.103,0.991,-0.234,0.0126,-0.0641,0.0877

Sequence,uncleaved DNA left (log2) [1],uncleaved DNA left (log2) [2],uncleaved DNA left (log2) [3],uncleaved DNA left (log2) [4],uncleaved DNA left (log2) [5],uncleaved DNA left (log2) [6],uncleaved DNA left (log2) [7],uncleaved DNA left (log2) [8],uncleaved DNA left (log2) [9],uncleaved DNA left (log2) [10]
GAAGGAC,0.127,0.117,0.794,1.95,0.113,2.06,0.34,0.149,0.132,0.196
CACTATA,-0.19,-0.247,-0.238,-2.47,0.158,-0.49,-2.69,0.00943,0.0441,0.0619
TTAGTAG,0.00573,-0.0904,-0.564,-0.947,0.0926,-1.31,0.13,-0.0781,0.0164,-0.105
AGGCTGC,0.000202,0.0187,0.324,1.19,-0.0188,1.4,0.189,0.0877,-0.0373,0.0299
CTAGCTG,0.034,0.153,0.401,1.47,0.108,1.62,0.123,0.142,-0.00797,0.139
GCACAGC,0.149,0.153,-0.0639,0.278,0.0142,-0.297,0.161,0.0759,0.146,0.153
AGCAAGT,0.0916,0.169,0.159,0.316,0.096,0.0882,-0.00268,0.153,0.00948,0.132
CGACAAC,-0.0624,0.0385,-0.0372,0.112,-0.0889,0.648,-0.00254,-0.0915,-0.0748,0.0515
CAGCGCT,-0.173,-0.249,-0.558,-0.979,-0.117,-0.621,-1.55,-0.163,-0.214,-0.336
AGCCCAT,-0.017,0.0481,0.49,0.957,0.00417,1.12,0.0308,0.112,0.054,0.166
GGTCCGG,-0.0012,0.147,0.681,1.64,0.0193,2.16,0.092,0.0217,0.0501,0.0486
TCATTAT,-0.714,-0.0844,-0.492,-1.91,0.0831,-0.753,-1.03,0.0722,0.143,0.0161
ATTAGGT,-0.00184,-0.0558,0.361,1.13,-0.0581,1.41,-0.11,0.00241,-0.0947,0.0296
GTTTTTT,-0.471,-0.036,0.239,0.583,-0.139,1.65,-0.634,-0.0289,-0.0639,-0.0704
GCCACAC,-0.0449,0.0407,0.22,0.412,-0.151,0.135,0.0687,-0.0138,0.0191,0.0854
TTGTTGG,0.00935,-0.169,-0.223,-0.179,-0.0565,-0.73,-0.0333,-0.144,-0.191,-0.156
ACCCTTA,0.0114,-0.0753,-0.0571,-0.762,0.106,-0.191,-0.122,0.0697,-0.124,-0.0237
TGAACCT,-0.0895,-0.0565,0.181,-1.26,-0.0922,0.419,-0.474,-0.196,-0.039,0.118
ACAATTG,0.00443,0.0377,-0.7,-0.364,0.0367,-1.02,0.177,0.0755,0.112,0.0657
CGGCCGA,-0.0343,0.0915,-0.177,-0.0107,0.0477,-0.274,0.173,0.0363,0.149,-0.0204
